Reference: PMC5027247
These are yes or no findings as the source states them, for the method shown. For some assays here: Binding seen in cells or lysates may run through a third protein. Some binding calls cover weakened binding; strength is not graded here. Where a sequence is shown, tags or fusion partners need not be part of it. Each block holds one binder with its values, some of them ahead of it.

Chains of the proteins cited; added tags and fusions are not shown. Lines headed by an entry give the natural chain unless they say otherwise; changes in a name come on top. A line that says so, or that is headed by a name, gives the form on record, which may keep a tag or linker. Residues count along the entry.
UniProt Q96CV9: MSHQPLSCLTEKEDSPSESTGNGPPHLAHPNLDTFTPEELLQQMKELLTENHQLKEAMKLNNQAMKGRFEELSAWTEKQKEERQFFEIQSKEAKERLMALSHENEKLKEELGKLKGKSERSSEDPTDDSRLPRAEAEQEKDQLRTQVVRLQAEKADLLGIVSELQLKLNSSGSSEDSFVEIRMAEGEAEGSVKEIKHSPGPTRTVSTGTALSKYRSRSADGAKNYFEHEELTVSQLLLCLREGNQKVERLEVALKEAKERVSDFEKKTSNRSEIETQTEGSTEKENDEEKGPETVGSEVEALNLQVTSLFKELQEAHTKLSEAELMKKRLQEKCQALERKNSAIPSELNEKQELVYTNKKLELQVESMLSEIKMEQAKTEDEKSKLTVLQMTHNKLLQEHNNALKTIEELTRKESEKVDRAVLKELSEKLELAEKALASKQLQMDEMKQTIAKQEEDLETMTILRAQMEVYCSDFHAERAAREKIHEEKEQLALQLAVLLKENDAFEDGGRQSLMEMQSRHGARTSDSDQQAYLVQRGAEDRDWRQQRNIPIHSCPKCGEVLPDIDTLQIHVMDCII
Flag-tagged OPTN(120–577): residues 120-577 of Q96CV9
GST-tagged OPTN(26–119) M44Q/M54Q (Q96CV9, form named): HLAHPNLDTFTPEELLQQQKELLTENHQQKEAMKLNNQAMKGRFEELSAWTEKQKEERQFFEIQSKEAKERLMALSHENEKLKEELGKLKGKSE
GST-tagged OPTN(26–119) L47Q/L54Q (Q96CV9, form named): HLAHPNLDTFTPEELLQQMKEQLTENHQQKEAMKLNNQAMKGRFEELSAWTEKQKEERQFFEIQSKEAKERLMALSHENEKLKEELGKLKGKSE

Assays:
[1] = target: Flag-tagged OPTN(120–577) (human) (UniProt Q96CV9); test: co-IP; Flag-tagged OPTN and GFP-tagged TBK1 co-transfected in HEK293T; lysate on anti-Flag agarose beads, 4 h at 4 °C; western blot with anti-Flag and anti-GFP
[2] = target: Flag-tagged full-length OPTN (residues 1–577) (human) (UniProt Q96CV9); test: as above
[3] = target: GST-tagged OPTN(26–119) M44Q/M54Q (human) (UniProt Q96CV9); test: pull-down; GST-tagged OPTN and Trx-His-tagged TBK1 mixed at 1:4, glutathione sepharose 4B beads; 50 mM Tris pH 7.5, 100 mM NaCl, 1 mM DTT, 1 mM EDTA; Coomassie or anti-His blot; both purified
[4] = target: GST-tagged OPTN(26–119) L47Q/L54Q (human) (UniProt Q96CV9); test: as above

binding [1]: no binding
binding [2]: binds
B1: GFP-tagged TBK1 (residues 1–729) (protein, UniProt Q9UHD2 1-729)
chain: MQSTSNHLWLLSDILGQGATANVFRGRHKKTGDLFAIKVFNNISFLRPVDVQMREFEVLKKLNHKNIVKLFAIEEETTTRHKVLIMEFCPCGSLYTVLEEPSNAYGLPESEFLIVLRDVVGGMNHLRENGIVHRDIKPGNIMRVIGEDGQSVYKLTDFGAARELEDDEQFVSLYGTEEYLHPDMYERAVLRKDHQKKYGATVDLWSIGVTFYHAATGSLPFRPFEGPRRNKEVMYKIITGKPSGAISGVQKAENGPIDWSGDMPVSCSLSRGLQVLLTPVLANILEADQEKCWGFDQFFAETSDILHRMVIHVFSLQQMTAHKIYIHSYNTATIFHELVYKQTKIISSNQELIYEGRRLVLEPGRLAQHFPKTTEENPIFVVSREPLNTIGLIYEKISLPKVHPRYDLDGDASMAKAITGVVCYACRIASTLLLYQELMRKGIRWLIELIKDDYNETVHKKTEVVITLDFCIRNIEKTVKVYEKLMKINLEAAELGEISDIHTKLLRLSSSQGTIETSLQDIDSRLSPGGSLADAWAHQEGTHPKDRNVEKLQVLLNCMTEIYYQFKKDKAERRLAYNEEQIHKFDKQKLYYHATKAMTHFTDECVKKYEAFLNKSEEWIRKMLHLRKQLLSLTNQCFDIEEEVSKYQEYTNELQETLPQKMFTASSGIKHTMTPIYPSSNTLVEMTLGMKKLKEEMEGVVKELAENNHILERFGSLTMDGGLRNVDCL

binding [2]: no binding
B2: GFP-tagged TBK1 (residues 1–674) (domain or fragment, UniProt Q9UHD2 1-674)
chain: MQSTSNHLWLLSDILGQGATANVFRGRHKKTGDLFAIKVFNNISFLRPVDVQMREFEVLKKLNHKNIVKLFAIEEETTTRHKVLIMEFCPCGSLYTVLEEPSNAYGLPESEFLIVLRDVVGGMNHLRENGIVHRDIKPGNIMRVIGEDGQSVYKLTDFGAARELEDDEQFVSLYGTEEYLHPDMYERAVLRKDHQKKYGATVDLWSIGVTFYHAATGSLPFRPFEGPRRNKEVMYKIITGKPSGAISGVQKAENGPIDWSGDMPVSCSLSRGLQVLLTPVLANILEADQEKCWGFDQFFAETSDILHRMVIHVFSLQQMTAHKIYIHSYNTATIFHELVYKQTKIISSNQELIYEGRRLVLEPGRLAQHFPKTTEENPIFVVSREPLNTIGLIYEKISLPKVHPRYDLDGDASMAKAITGVVCYACRIASTLLLYQELMRKGIRWLIELIKDDYNETVHKKTEVVITLDFCIRNIEKTVKVYEKLMKINLEAAELGEISDIHTKLLRLSSSQGTIETSLQDIDSRLSPGGSLADAWAHQEGTHPKDRNVEKLQVLLNCMTEIYYQFKKDKAERRLAYNEEQIHKFDKQKLYYHATKAMTHFTDECVKKYEAFLNKSEEWIRKMLHLRKQLLSLTNQCFDIEEEVSKYQEYTNELQETLPQKMFTASSGIKHTMT

binding [3]: no binding
binding [4]: no binding
B3: Trx-His-tagged TBK1 CTD (residues 677–729) (domain or fragment, UniProt Q9UHD2 677-729)
chain: YPSSNTLVEMTLGMKKLKEEMEGVVKELAENNHILERFGSLTMDGGLRNVDCL
